Reference: paper PMC4336329 (PLoS ONE, 2015)
The campaign covered roughly 310,000 compounds. About 2,200 (0.71%) showed an effect of 50% or more. Effects have a minus sign here. The list shows a part of the results.

biological target: human ether-à-go-go-related gene (hERG) potassium channel (human, UniProt Q12809); assay: primary screen, population patch clamp on CHO cells stably expressing hERG
Sequence (Q12809 whole entry, looked up): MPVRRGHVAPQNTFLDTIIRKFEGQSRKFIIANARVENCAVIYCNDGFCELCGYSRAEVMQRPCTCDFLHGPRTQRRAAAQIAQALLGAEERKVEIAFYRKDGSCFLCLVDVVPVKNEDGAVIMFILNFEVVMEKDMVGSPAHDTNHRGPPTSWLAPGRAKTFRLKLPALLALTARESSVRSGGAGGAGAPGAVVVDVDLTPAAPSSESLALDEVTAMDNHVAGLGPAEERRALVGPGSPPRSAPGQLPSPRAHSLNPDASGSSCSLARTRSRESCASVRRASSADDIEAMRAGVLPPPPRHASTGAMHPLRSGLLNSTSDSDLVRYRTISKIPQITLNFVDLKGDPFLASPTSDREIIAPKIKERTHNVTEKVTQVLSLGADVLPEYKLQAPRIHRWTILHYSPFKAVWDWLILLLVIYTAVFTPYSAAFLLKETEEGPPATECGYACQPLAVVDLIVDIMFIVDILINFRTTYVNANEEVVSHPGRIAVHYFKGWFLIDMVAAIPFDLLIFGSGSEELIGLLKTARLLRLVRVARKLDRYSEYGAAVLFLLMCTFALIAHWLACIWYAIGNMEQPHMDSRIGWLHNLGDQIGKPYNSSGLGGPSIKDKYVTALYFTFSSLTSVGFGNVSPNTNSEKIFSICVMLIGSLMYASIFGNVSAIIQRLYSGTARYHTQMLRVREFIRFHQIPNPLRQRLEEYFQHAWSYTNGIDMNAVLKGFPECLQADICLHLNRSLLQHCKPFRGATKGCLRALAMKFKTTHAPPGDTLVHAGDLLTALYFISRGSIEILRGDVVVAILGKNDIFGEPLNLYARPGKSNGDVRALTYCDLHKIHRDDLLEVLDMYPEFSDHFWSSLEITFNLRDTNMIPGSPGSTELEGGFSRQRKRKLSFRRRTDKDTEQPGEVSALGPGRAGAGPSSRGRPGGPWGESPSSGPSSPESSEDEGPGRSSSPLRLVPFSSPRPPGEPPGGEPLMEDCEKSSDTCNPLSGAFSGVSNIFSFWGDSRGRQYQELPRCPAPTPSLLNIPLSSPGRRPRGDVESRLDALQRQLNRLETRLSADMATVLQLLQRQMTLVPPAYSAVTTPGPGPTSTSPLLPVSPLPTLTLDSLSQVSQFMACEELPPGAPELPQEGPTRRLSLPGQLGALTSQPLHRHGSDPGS

Row | SMILES | hERG current change (%, negative = inhibition) at 1uM [%]
1 | COC(=O)CN(c1cccc(F)c1)S(C)(=O)=O | -7.37
2 | CCN(CC)c1nc2c(c(=O)n(C)c(=O)n2C)n1CC(=O)c1ccccc1 | 1.7
3 | COc1ccc2[nH]c(=O)c(CN(CCCN(C)C)C(=O)Nc3ccc(F)cc3)cc2c1 | -43.5
4 | COc1ccc(Oc2cn[nH]c2-c2ccc(O)cc2O)cc1 | 4.62
5 | COc1cccc(CC2(CO)CCCN(Cc3ccc4c(c3)OCCO4)C2)c1 (stereo not drawn) | -5.09
6 | COC(=O)c1cc2n(n1)CCN(Cc1cccc(OC)c1)C2=O | 9.63
7 | COc1ccccc1C(=O)NC(=O)COC(=O)c1cc[n+]([O-])cc1 | 7.51
8 | CCN(Cc1ccccc1)S(=O)(=O)c1cc2[nH]c(=O)c(=O)[nH]c2cc1C | 13.1
9 | O=C1CCC([N+](=O)[O-])C(c2ccc(Cl)c([N+](=O)[O-])c2)N1 (stereo not drawn) | 8.47
10 | CCc1ccccc1N(CC(=O)NC1CCCCC1)C(=O)CCC(=O)Nc1ccccn1 | 12.3
11 | CCCCOc1ccc(N2C(=O)CC(NCc3ccncc3)C2=O)cc1 (stereo not drawn) | 0.866
12 | NS(=O)(=O)c1ccc(CCNC(=O)CNC(=O)c2ccc(F)cc2)cc1 | 21.7
13 | CCCCCCCCn1cnc2c(N)c(C)c(C)cc21 | 15.2
14 | Cc1ccccc1C(=O)N/N=C/c1ccncc1 | 21.7
15 | O=C(OCC(=O)N1CCN(c2ccccc2)CC1)c1ccccn1 | 2.77
16 | COc1ccccc1C(=O)NC1CCN(C(=S)NCCc2ccccc2)CC1 | 3.17
17 | CCC(C)(C)C1CCc2[nH]nc(C(=O)NC(C)C)c2C1 (stereo not drawn) | 17.5
18 | CN(CC(=O)NCCc1ccccc1)S(=O)(=O)c1ccc(Br)s1 | 9.66
19 | COCc1cc(=O)[nH]c(Sc2c(-c3ccccc3)c3ccc(Cl)cc3[nH]c2=O)n1 | 13.9
20 | CCCCC/C(=N\O)c1c[nH]c2ccccc12 | 9.08
21 | CCN(CC)CCC(c1cc(OC)c(OC)c(OC)c1)c1c(OC)cc(OC)c2c(-c3ccccc3)cc(=O)oc12 (stereo not drawn) | 9.21
22 | Nc1nc(NCc2ccccc2)nc(Nc2cccc(F)c2)c1[N+](=O)[O-] | 14.2

Row | SMILES | hERG current change (%, negative = inhibition) at 1uM [%]
23 | O=C(CCNc1ccc(F)cc1)c1ccco1 | -1.63
24 | Cc1ccccc1S(=O)(=O)Nc1ncnc2scc(-c3ccccc3)c12 | -1.91
25 | O=C(CCN1C(=O)c2ccccc2C1=O)C1=NN[C@@H]2C(=O)N(c3ccc4c(c3)OCO4)C(=O)[C@H]12 | 4.83
26 | Cc1cc(OC(C)C(=O)NCCCn2ccnc2)c2c(C)cc(=O)oc2c1 (stereo not drawn) | 9.26
27 | CCCNC(=O)C(=O)NCc1ccccn1 | 0.253
28 | COc1ccc(CCNC(=O)c2c[nH]c3ccccc3c2=O)cc1OC | 3.65
29 | CC(C)(C)c1cc(=O)n2c(nc3ccccc32)[nH]1 | 13.8
30 | CCOC(=O)c1ccc(NC(=O)CCC(=O)OC)cc1 | 12.6
31 | CC(NS(=O)(=O)c1ccc(OCC(=O)Nc2cccc([N+](=O)[O-])c2)cc1)c1ccccc1 (stereo not drawn) | 10.9
32 | O=C(c1ccc(COc2ccccc2Br)cc1)N1CCCCCC1 | 6.28
33 | O=C(Oc1ccccc1C(=O)Nc1ccccc1)c1ccc(Br)c([N+](=O)[O-])c1 | 8.43
34 | COc1ccc(C[C@@H]2CN3C(=NC[C@@H]3C)N2CCNC(=O)c2ccc(C)c(Br)c2)cc1 | -64.9
35 | CC(C)C(=O)Nc1cccc(NC(=S)NC(=O)c2cccs2)c1 | 1.16
36 | Cc1nc(C(=O)NCC(=O)c2ccccc2)c(C(F)(F)F)o1 | 13.1
37 | Cc1ccc(N2CC(C(=O)Nc3nc4ccc(S(C)(=O)=O)cc4s3)CC2=O)cc1C (stereo not drawn) | 11.1
38 | COc1ccc(OC)c(/C=N/NC(=O)c2ccc[n+](CC(=O)c3ccccc3)c2)c1 | 11
39 | Cc1ccc(S(=O)(=O)c2cn(C)c3cc(N4CCN(C)CC4)c(F)cc3c2=O)c(C)c1 | 14
40 | Cc1ccc(C)c(NS(=O)(=O)c2ccc3c(c2)NC(=O)CCS3)c1 | 7.34
41 | CC1CCCC(C)N1C(=O)CSc1nnc(NC(=O)c2cccs2)s1 (stereo not drawn) | 18.3
42 | COc1cc(Cl)c(C)cc1NC(=O)COc1ccccc1[N+](=O)[O-] | -2.79
43 | O=S(=O)(Nc1nc2ccc(S(=O)(=O)N3CCCC3)cc2s1)c1ccc(F)cc1 | -8.34
44 | COc1ccccc1-c1cc(C(=O)N2CCCc3ccccc32)no1 | 6.64

Row | SMILES | hERG current change (%, negative = inhibition) at 1uM [%]
45 | O=C(CNC(=O)c1ccco1)NCC(=O)OCc1cccc(Cl)c1 | -2.91
46 | CCCCc1nnc(NC(=O)C2CC(=O)N(c3ccc(C)cc3)C2)s1 (stereo not drawn) | 12.8
47 | O=C(Cc1cnn(-c2ccccc2)c1)c1ccc(O)c(O)c1O | 0.139
48 | Cc1ccc(C(=O)Nc2ccccc2C(=O)N2CCN(c3ccccc3)CC2)cc1 | 15.5
49 | Cc1cccc(C)c1NC(=O)Cc1cccs1 | 12.6
50 | O=C(CSCc1ccc([N+](=O)[O-])cc1)NC1CCCCCC1 | -4.32
51 | Clc1ccc2nc(CSc3nncn3-c3ccccc3)cn2c1 | 11.3
52 | COc1ccc(OC)c(S(=O)(=O)NCc2cn3cccc(C)c3n2)c1 | 9.59
53 | CN(CC(=O)NCC1CCCCC1)CC(=O)Nc1ccc(F)cc1 | -1.41
54 | CC(c1ccco1)N(C(=O)c1ccccc1NS(=O)(=O)c1cccc([N+](=O)[O-])c1)c1ccccn1.Cl (stereo not drawn) | 5.36
55 | Cc1[nH]c2ccccc2c1/C=N/NC(=O)C1CC1(c1ccccc1)c1ccccc1 (stereo not drawn) | 3.97
56 | COc1ccccc1OCCC(=O)NCc1ccc2c(c1)OCO2 | 6.42
57 | O=C(/C=C/c1ccc(F)cc1)NCCC1=CCCCC1 | -1.02
58 | CCc1ccc(NS(=O)(=O)c2cc3c4c(c2)CCN4C(=O)CC3)cc1 | 3.86
59 | CC(C)COP(=O)(c1ccc(N(C)C)cc1)C(O)c1ccccc1 (stereo not drawn) | 19.4
60 | CC(=O)N1C(=O)/C(=C2\SC(=S)N(NC(=O)c3ccc(O)cc3)C2=O)c2ccccc21 | 6.63
61 | COc1ccc(S(=O)(=O)N(C)CC(=O)NCc2ccc3c(c2)OCO3)cc1 | 7.58
62 | CC(C)c1ccc(Nc2nc(Cl)nc(NCCO)n2)cc1 | 7.67
63 | COc1cccc(N2CCN(CC(=O)Nc3ccc(SC(F)F)cc3)CC2)c1 | -27.7
64 | Cl.Oc1cccc(C(O)CNCc2ccc(OCc3ccc(Cl)cc3Cl)cc2)c1 (stereo not drawn) | 14.8
65 | CCN(CC)C(=O)c1ccc(NC(=O)c2cccc(F)c2)cc1 | -2.92
66 | c1ccc(Cn2nc(-c3ccccc3)nc2-c2ccccc2)cc1 | 12

Row | SMILES | hERG current change (%, negative = inhibition) at 1uM [%]
67 | CCOc1ccccc1C1C(C#N)=C(N)Oc2cc(C)n(Cc3ccccn3)c(=O)c21 (stereo not drawn) | -2.67
68 | COc1ccc(NC(=O)c2ccc(NS(=O)(=O)c3c(C)noc3C)cc2)cc1OC | 24.5
69 | CO/N=C/Cc1c([N+](=O)[O-])c(C)nn1C | 13.7
70 | COc1ccc2cc(C#N)c(N3CCN(Cc4nnnn4CCC(C)C)CC3)nc2c1 | 2.57
71 | CC(Oc1ccccc1)C(=O)N/N=C/c1ccccn1 (stereo not drawn) | 1.86
72 | N#CCCn1cc(C(CC(=O)c2ccccc2)C(=O)O)c2ccccc21 (stereo not drawn) | 16.8
73 | CCCOC(c1ccccc1)(c1ccccc1)C(Oc1nc(C)cc(C)n1)C(=O)O (stereo not drawn) | 14.5
74 | Cc1c[nH]c2cccc(OCC(CNC(C)(C)C)OC(=O)c3ccccc3)c12.Cl (stereo not drawn) | 17.4
75 | COc1ccccc1CN1CC(C(=O)NCc2cccc(Cl)c2)CCC1=O (stereo not drawn) | 7.73
76 | Cc1ccc(NC(=S)N2CCN(S(=O)(=O)c3c(F)cccc3F)CC2)cc1C | 8.69
77 | c1cc(-c2ccncc2)ccn1 | 16.2
78 | CC(C)Oc1ccc(/C=C(/NC(=O)c2ccccc2)C(=O)NC(Cc2ccccc2)C(=O)O)cc1 (stereo not drawn) | 14.6
79 | CCCCCCCC(=O)NNC(=O)c1c(O)c2ccccc2n(CC)c1=O | 15.8
80 | COc1ccccc1C/C(N)=N/OC(=O)COc1ccc(C)cc1 | 0.816
81 | CC(=O)Nc1ccc(S(=O)(=O)NCc2ccc(C)cc2)cc1 | 8.26
82 | CN(C)S(=O)(=O)c1cccc(NC(=O)c2cccc(S(=O)(=O)N3CCCCC3)c2)c1 | -4.77
83 | CCCN1C(=O)/C(=C/c2c(NCCCOC(C)C)nc3c(C)cccn3c2=O)SC1=S | -1.3
84 | CCN(CC)C(=O)c1ccc(C(=O)c2c(C)cc(C)cc2C)cc1 | -13.9
85 | Cl.O=C(CCN1CCCC1Cc1ccccc1)c1ccc2c(c1)OCCO2 (stereo not drawn) | -21.9
86 | C#Cc1ccc(C(=O)Nc2ccc(N3CCC(C)CC3)c(C(N)=O)c2)cc1 | 0.866
87 | O=C(NCc1ccc2c(c1)OCO2)C1CC(c2cccc(Br)c2)=NO1 (stereo not drawn) | -2.6
